# Assay results reported in the RNAGym collection of RNA variant scans (doi:10.1073/pnas.2313332121).
# This sample is rich in variants without activity.
# B1: TPR 5TU (parent)
# chain: GGAUCUUCUCGAUCUAACAAAAAAGACAAAUCUGCCACAAAGCUUGAGAGCAUCUUCGGAUGCAGAGGCGGCAGCCUUCGGUGGCGCGAUAGCGCCAACGUUCUCAACUAUGACACGCAAAACGCGUGCUCCGUUGAAUGGAGUUUAUCAUG
# Variants of: B1
# Assay: polymerase ribozyme fitness, log enrichment relative to wild type (log ratio); higher = more active; in vitro selection for triplet polymerase activity
# How it was run: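 PCR was used to build mutant libraries for each subunit of a heterodimeric triplet polymerase ribozyme, which were then transcribed. A single in vitro selection round, in triplicate, used a frozen incubation at −7 °C and recovered extended constructs by gel excision, streptavidin beads and RT-PCR. Fitness is the logarithm of genotype enrichment relative to wild-type enrichment, averaged over replicates with inverse-variance weights. The logarithm is base 2, and after Illumina sequencing only genotypes with ≥10 input reads and ≥1 read per output were kept.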
row,Variant,polymerase ribozyme fitness (log ratio)
1,GGAUCUUUUCGAUCUAACAAAAAAGACAAGUCUGCCACAAAGCUUGAGAGCAUCUUCGGAUGCAGAGGCGGCAGCCUUCGGUGGCACGAUAGCGCCAACGUUCUCAACUAUGACACGCAAAACGCGUGCUCCGUUGAAUGGAGUUUAUCAUG [C8U A30G G86A],≤ -4.2
2,GGAUCUUUUCGAUCUAACAAAAAAGACAAAUCUGCCACCAAGCUUGAGAGCAUCUUCGCAUGCAGAGGCGGCAGCCUUCGGUGGCGCGAUAGCGCUAACGUUAUCAACUAUGAUAUGCAAAACGCGUGCUCCGUUGAAUGGAGUUUAUCAUG [C8U A39C G59C C96U C103A C114U C116U],≤ -4.2
3,GGAUCUUUUCGAUCUAACAAAAAAGACAUAUCUGCCACAAAGAUUCAGAGCAUCUUGGGAUGCAGAGGCGGCAGCCUUCGGUGGUGCGAUAGCGCCAACGUUCUCAACUAUGACACGCAAAACGCGUGCUCCGUUGAAUGGAGGUUAUCAUG [C8U A29U C43A G46C C57G C85U U144G],≤ -4.2
4,GGAUCUUUUCGAUCUAACAAAAAAGACAAAUCUGCCACAAAGCUUGAGAGCAUCUUCGGAUGCGGAGCCGGCAGCCUUCGGUGGUGCGAUAGCGCCAACGUUCUCAACUAUGACACGCAAAACGCGUGCUCCGUUGAAUGGAGUUUAUCAUG [C8U A64G G68C C85U],≤ -4.2
5,GGAUCUUUUCGAUCUAACAAAAAAGACAAAUCUGCCACAAAGCUUGAGGGCAUCUUCGGAUGCAGAGGCGGCAGCCUUCGGUGGCGCGAUAGCGCCAACUUUCUCAACUAUGACACGCAAAACGCGUGCUCCGUUGAAUGGAGUAUAUCAUG [C8U A49G G100U U145A],≤ -4.2
6,GGAUCUUUUCGAUCUAACAAAAAAGACAAAUCUGCCACAUAGCUUGAGAGCAGCUUCGGAUGCAGAAGCGGCAGCCUUCGGUGGCGCGAUACCGCCAACGUUCUAAACUAUGACACGCAAAACGCGUGCUCCGUUGAAUGGAGUUUAUCAUG [C8U A40U U53G G67A G92C C105A],≤ -4.2
7,GGAUCUUUUCGAUCUAACAAAAAAGACAAAUCUGCCACAAAGCUUGCGAGCAUCAUCGGAUGCGGAGGCGGCAGCCUUCGGUGGCGCGAUAGCGCCAACGUUCUCAACUAUGACACGCAAAACGCGUGCUCCGUUGAAUGGAGUUUAUCAUG [C8U A47C U55A A64G],≤ -4.2
8,GGAUCUUUUCGAUCUAACAAAAAAGACAAAUCUGCCACAAAGCUUGAGAGCAUCUUCGGGUGCAGAGGCGGCAGCCUUCGGUGGCGCGAUAGCGCCAACGUUCUCAACUAUGACACGCAACACGCGUGCUCCGUUGAAUGGAGUUUAUCAUG [C8U A60G A121C],-3.73
9,GGAUCUUUUCGAUCUAACAAAAAAGACUAAUCUGCCACAAAGCUUGAGAGUAUCUUCGGAUGCAGAGGCGGCAGCCUUAGGUGGCGCGAUAGCGAAAACGUACUCAACUAUGACACGUAAAACGCGUGCUCCGUUGAAUGCAGUUUAUCAUG [C8U A28U C51U C79A C95A C96A U102A C118U G141C],≤ -4.2
10,GGAUCUUUUAGAUCUAACAAAAAAGACAAAUCUGCCACAAAGCUUGAGAGCCUUUUCGGAUGCAGAGGCGGCAGCCUUCGGUGGCGCGAUAGCGCCAACGUUCUCAACUAUGACACGCAAAACGCGUGCUCCGUUGCAUGGAGUUUAUCAUG [C8U C10A A52C C54U A137C],≤ -4.2
11,GGAUCUUUUCGAUCUAACAAAAAAGACAAUUCUGCCACAAAGCUUGAGAGCAUCUUCGGAUGCAGAGGCGGAAGCCUUCGGUGGUGCGAUAGCGCCAAAGUUCUCAACUAUGACACGCAAAACGCGUGCUCCGUUGAAUGGAGUUUAUCAUG [C8U A30U C72A C85U C99A],≤ -4.2
12,GGAUCUUUUCGAUCUAACAAAAAAGACAAAUCUGCCACGAAGCUUGAGAGCAUCUUCGGAUGCAGAGGCGGCAGCCUUCGGUGCCGCGAUAGCGCCAACGUGCUCAACUAUGACAGGCCAAACGCGUGCUCCGUUGAAUGGAGUUUAUGAUG [C8U A39G G84C U102G C116G A119C C149G],≤ -4.2
13,GGAUCUUUUCGAUCUAACAAAAAAGACAAAUCUGCCACAAAGCUUGAGAGCAUCUUCGGUUGCAGAGGCGGCAGCCUUCGGUGGCGCGAUAGCGCCAACGUUCUCAACUAUGACACGCAAAACGCGUGCUCCGUUGAAUGGAGUUUAUCAUG [C8U A60U],-3.79
14,GGAUCUUUUCGAUCUAACAAAAAAGACAAAUCUGCCACAAAGCUUGAGAGCUACUGCGGAUGCAGCGGCGGCAGUCUUCGGUGGUGCGAUAGCGCCAACGUUCUCAACUAUGACACGCAAAACGCGUGCUCCGUUGAACGGAGUUUAUCCUG [C8U A52U U53A U56G A66C C75U C85U U139C A150C],≤ -4.2
15,GGAUCUUUUCGAUCUAACAAAAAAGACAAAUCUGCCACGAAGCUUGAGAGCAUCUUCGGAUGCAGAGGCGGCAGCCUUCGGUGGCGCGAUAGCGCCAAUGUUCUCAACUGUGACACGCAAAACGCGUGCUCCGUUGAAUGGAGUUAAUCAUG [C8U A39G C99U A110G U146A],≤ -4.2
16,GGAUCUUUUCGAUCUAACAAAAAAGACAAAUCUGCCACAAAGCUUGAGCGCAUCUUCGGAUGCAGAGGCGGCAGCCUUCGGUGGCGCGAUAGCGCCAACGUUCUCAACUAUGACACGCAAAACGCGUGCUCCGUUGAAUGGAGUUUAUCAUG [C8U A49C],≤ -4.2
17,GGAUCUUUUCGAUCUAACAAAAAAGACAAAUCUGCCACAAAGCUUGAGAGCAUCUUCGGAUGCAGAGGCGGCAGCCUUCGGUGGCGCGUUAUAGCCAACGUUCUCAACUAUGACACGCAAAACGUGUGCUCCGUUGACUGGAGUUUAUCAUG [C8U A89U G92U C93A C125U A138C],≤ -4.2
18,GGAUCUUUUCGAUCUAACAAAAAAGACAAAUCUGCCCCAAGGCCUGAGAGCAUCUUCGGAUCCAGAGGCGGCGGCCUUCGGUGGCGCGAUAGUGCCAACGUUCUCAACUAUGACACGCAAAACGCGUGCUCCGUUGAAUGGAGUUUCUCAUG [C8U A37C A41G U44C G62C A73G C93U A147C],≤ -4.2
19,GGAUCUUUUCGAUCUAACAAAAAAGACAAAUCUGCCACAAAGCUUGAGAGCUUUUUCGGAUGCAGAGGCGGCAGCCUUCGGUAGCGCGAUAGCGCCAACGUUCUCAACUAUGACACGAAAAACGCGGGCUCCGUUGAAUGGAGUUUAUCAUG [C8U A52U C54U G83A C118A U127G],≤ -4.2
